Source: the supplement of paper PMC11417369
± gives the standard deviation of the averaged measurements. The list shows a part of the results.

The sequences below were run on PfAP2-EXP AP2 domain (GST-tagged) (assay: gcPBM binding intensity (ln(normalized median fluorescence intensity)); higher = stronger DNA binding).
Outline: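 Binding intensity values are the highest Masliner-normalised natural-log median intensity among replicate spots of either probe orientation. The binding step lasted 1 h in 1× PBS with 1% milk, 0.2 mg/ml BSA, 0.5% salmon testes DNA and 0.03% Triton X-100, using GST-tagged P. falciparum DNA-binding domains expressed in E. coli on an Agilent 4 × 180k array of primer-extended double-stranded 36-bp intergenic genomic probes plus negative controls. Alexa488 anti-GST antibody and a 488 nm scan detected bound protein.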

Sequence | gcPBM binding intensity (ln)
TTTCAAACAAAAAGACGTACACTGAAGTTATCCGTC [XGTACX_site8824] | 8.48 ± 0.31
TTGTATTCATAACAACGTACATATTTTGTAACTAAA [XGTACX_site4029] | 8.42 ± 0.3
AAGGAAATATAATATACACACATAAGTGTACTTCTA [CACACA_site6079] | 8.32 ± 0.3
ACTCATAAAAATAGATGTACTTTAATAATTTGATTT [XGTACX_site8763] | 8.21 ± 0.18
AAAAAAAAAAGACACACACACATATAAATATAAATA [CACACA_site6899] | 8.75 ± 0.38
TCAAACGGTTAAATATGTACATATATATATATATAT [XGTACX_site2339] | 10 ± 0.45
ATATATATTTAAACTACACACGCATATCTTAGAAAT [CACACA_site8348] | 8.62 ± 0.53
ACCCACTTTTGAGGTGTGCACAATAAATTGGACATT | 8.67 ± 0.16
AGGAAAAAAAAAATGACACACATATTTGAATTAAAA [CACACA_site1352] | 8.34 ± 0.54
TAAGAGATATTTTATTAAATGTTTTATGAATCATGT [TGCATGCA_negctrl_site264] | 7.9 ± 0.47
AGTGTGTGTAATAAAGTGCATTAAAAATGACACGTA | 9.13 ± 0.12
GTACATACATAAAACACACACATATAGATTTATATA [CACACA_site6945] | 8.6 ± 0.33
AACACTTCTTATTTATGTACTTAATTCCCAACGGAA [XGTACX_site4818] | 8.87 ± 0.46
ATAAAATATAAAAATTGTACGATAATAATAGTAGGA [XGTACX_site8951] | 8.71 ± 0.26
TATCTCTTCATATTGTGTACATATTTTTATTTATTG [XGTACX_site4038] | 9.11 ± 0.42
AATTACTACATAAATACATGCATAATTATATATATA [TGCATGCA_site783] | 9.03 ± 0.14
AAATATATATATATATATATATATATATATATATAT [CACACA_negctrl_site677] | 10.1 ± 0.36
TTATAAAATTACTTGGTGCATTAGAATATTTCAATA | 8.59 ± 0.13
TGATCAGATAGACACACACACAAAAAAAAAAAAAAA [CACACA_site7805] | 8.03 ± 0.61
AAATGAATAAATAAGACACACACGAAAATAAGTAAA [CACACA_site71] | 9.07 ± 0.56
TTTTCTAAATAAATAGTGCATTTATTATATATACAT [GTGCAC_site9766] | 8.65 ± 0.014
TGTTTATTTTTAAAAAGTACATATTTAAAAAACTTC [XGTACX_site271] | 8.28 ± 0.3

Sequence | gcPBM binding intensity (ln)
CAAAAGAAGGTAAACACACACACACGCATACAAAAA [CACACA_site7724] | 8.91 ± 0.63
ATTTCTCTATCGTAATGTACATAAAAAATGAAAAAA [XGTACX_site1201] | 8.7 ± 0.38
ATAGAATAAAACTATACACACCTATATTTAAACATA [CACACA_site5106] | 8.46 ± 0.33
CAAAACCTTATATGTACACACATATACATCACCCTT [CACACA_site3170] | 8.64 ± 0.39
TATTGTTACTTTATATGTACTAATTAAACATATACA [XGTACX_site6363] | 8.57 ± 0.37
TTGTATTATATTGTATTATGTTTAAATGAAAAAAAA [CACACA_negctrl_site662] | 8.36 ± 0.52
AAAAAAAAAAAAAAAAGTACACAAATTTTAAAAATT [XGTACX_site3006] | 8.64 ± 0.13
AAATATTAGTAACACAGACACACAAAAAAAAAAAAA [CACACA_site2175] | 8.46 ± 0.59
AAAAATACCTTATATATACACACTATGTTTTTCTTT [CACACA_site1192] | 8.71 ± 0.28
AAAAAAAAAAAAAAAACACACATACATACATACATA [CACACA_site6125] | 8.66 ± 0.22
TTTTTTTTTTTTTTTGCACACACCATATTTATAGAA [CACACA_site3310] | 8.51 ± 0.25
AGAAAAGTGATATATACACACTTATATTTATTTATA [CACACA_site7350] | 8.22 ± 0.35
TTAAATGATGTAAACACACACATATACATTATTATA [CACACA_site3162] | 8.31 ± 0.33
TATTGTCTATAATAAACACACAATATTAAAAATATA [CACACA_site6624] | 8.21 ± 0.45
ATCTTTCCTATTTGTAGTACAAAAAAAAAAAAAAAA [XGTACX_site5485] | 8.44 ± 0.18
TTTTATAAGGTGAAAAGTACATATAACTTATTTTAC [XGTACX_site5572] | 8.36 ± 0.37
ACGTGTGATTATAATTGTACTTTAATGTAAGAATGA [XGTACX_site1109] | 8.55 ± 0.32
ATATATATATATATATGTACTTATAATAATATTCAA [XGTACX_site2593] | 10 ± 0.59
AATTTTATTTAATTTTTTTGGGAAATGATAAAATTT [CACACA_negctrl_site934] | 7.96 ± 0.45
TTATTTTATTTTTTTGTGCACATATATATTTATAAA [GTGCAC_site9615] | 9.15 ± 0.21
ACTTATATATTATGTTGTCCGTCCATTCTCTTTATC [XGTACX_site3769] | 9.23 ± 0.46
TTTTCATTCAATTATATTTATATATATATATATATA [GTGCAC_negctrl_site538] | 10.2 ± 0.44
